The test system of this assay is OVCAR8. Briefly: cell count relative to DMSO vehicle (fold change); OVCAR8 is a high-grade serous ovarian cancer line and CX-5461 an RNA polymerase I inhibitor; higher = more surviving senescent cells (less killing). The note with it: senescence inducer: CX-5461 3 µM 48 h, then 6 d recovery (CX senescent), exposure time 24 h.

Values joined by “and” are separate entries in the source; they are usually repeats but may differ in a detail not shown here. Identical values can stand only once. Counter-ions that a name gives are not always drawn. ± gives the standard deviation of the averaged measurements. This is one part of the list.

For `CC[C@H](CC[C@@H](C)[C@H]1CC[C@H]2[C@@H]3CC=C4C[C@@H](O)CC[C@]4(C)[C@H]3CC[C@]12C)C(C)C` [beta-SITOSTEROL], the cell count reads like this: (compound dose 1 µM) 1.25 ± 0.096; (compound dose 5 µM) 1.14 ± 0.2.

With `COc1ccc(CCNCc2ccc(OCc3ccc(Cl)nc3)c(OC)c2)cc1OC` [SBE13 (Hydrochloride)], the cell count by setting is: (compound dose 1 µM) 0.954 ± 0.2; (compound dose 5 µM) 0.84 ± 0.13.

Consider `CC(C)(C)c1cc(C(c2cc3c(cc2O)OCO3)N2CCOCC2)cc(C(C)(C)C)c1O` (stereo not drawn), for which the cell count runs as follows: (compound dose 1 µM) 0.963 ± 0.12; (compound dose 5 µM) 0.353 ± 0.057.

Turning to `O=c1ccc2ccc(O)c(O)c2o1` [Daphnetin], the cell count by setting is: (compound dose 1 µM) 0.917 ± 0.09; (compound dose 5 µM) 0.965 ± 0.11.

As to `O=C(Nc1cccnc1)c1cccs1`, the cell count was determined as 1.03 ± 0.13 (compound dose 1 µM) and 1.13 ± 0.14 (compound dose 5 µM).

In the case of `c1ccc2nc3ccccc3nc2c1` [Phenazine (methylsulfate)], the cell count is, setting by setting: (compound dose 1 µM) 0.991 ± 0.063; (compound dose 5 µM) 0.622 ± 0.83.

As to `CS(=O)(=O)CCNCc1ccc(-c2ccc3ncnc(Nc4ccc(OCc5cccc(F)c5)c(Cl)c4)c3c2)o1`, the cell count (compound dose 1 µM) was 0.753 ± 0.11 and the cell count (compound dose 5 µM) was 0.44 ± 0.21.

Consider `CS(=O)(=O)CCNCc1ccc(-c2ccc3ncnc(Nc4ccc(OCc5cccc(F)c5)c(Cl)c4)c3c2)o1` [Lapatinib], for which the cell count is, setting by setting: (compound dose 1 µM) 1.1 ± 0.095; (compound dose 5 µM) 1.2 ± 0.071.

Take `Cn1cc(CC(N)C(=O)O)c2ccccc21` (racemic) [(Rac)-Indoximod]: the cell count runs as follows: (compound dose 1 µM) 1.18 ± 0.25; (compound dose 5 µM) 1.12 ± 0.18.

Consider `CCC[C@H](Nc1nc(-c2ccc(NC(=O)NCC)c(OC)c2)ncc1C)c1cccnc1` [Lexibulin], for which the cell count is, setting by setting: (compound dose 1 µM) 1.17 ± 0.016; (compound dose 5 µM) 1.12 ± 0.018.

As to `COc1cc2ncc(-c3ccccc3)nc2cc1OC` [Tyrphostin AG 1296], the cell count runs as follows: (compound dose 1 µM) 1.29 ± 0.16; (compound dose 5 µM) 1.22 ± 0.15.

The compound `O=c1cc(N2CCNCC2)oc2c(-c3ccccc3)cccc12` displayed a cell count (compound dose 1 µM) of 1.15 ± 0.25 and a cell count (compound dose 5 µM) of 0.961 ± 0.2.

`Cn1cc(-n2cnc3c(NCc4nc5cc(Cl)c(Cl)cc5[nH]4)nc(N4CCOCC4)nc32)cn1`: the cell count turned out to be 0.607 ± 0.024 (compound dose 1 µM) and 0.634 ± 0.059 (compound dose 5 µM).

For `COc1cc(Nc2ncc(F)c(Nc3ccc4c(n3)NC(=O)C(C)(C)O4)n2)cc(OC)c1OC`, the cell count (compound dose 1 µM) turned out to be 0.728 ± 0.11 and the cell count (compound dose 5 µM) was 0.295 ± 0.0092.

As to `COc1cc(Nc2ncc(F)c(Nc3ccc4c(n3)NC(=O)C(C)(C)O4)n2)cc(OC)c1OC` [R406 (free base)], the cell count by setting is: (compound dose 1 µM) 1.06 ± 0.075; (compound dose 5 µM) 0.911 ± 0.15.

With `Cc1ccc(NC(=O)c2ccc(CN3CC[C@H](N(C)C)C3)c(C(F)(F)F)c2)cc1Nc1nccc(-c2cncnc2)n1` [Bafetinib], the cell count came to 1.01 ± 0.036 (compound dose 1 µM) and 1.1 ± 0.1 (compound dose 5 µM).

For the compound `CCCCCCCCCCC[C@@H](C[C@@H]1OC(=O)[C@H]1CCCCCC)OC(=O)[C@H](CC(C)C)NC=O` [Orlistat], the cell count runs as follows: (compound dose 1 µM) 0.969 ± 0.13; (compound dose 5 µM) 0.881 ± 0.026.

Consider `CC1(C)CCC(CN2CCN(c3ccc(C(=O)NS(=O)(=O)c4ccc(NCC5CCOCC5)c([N+](=O)[O-])c4)c(Oc4cnc5[nH]ccc5c4)c3)CC2)=C(c2ccc(Cl)cc2)C1` [Venetoclax], for which the cell count is, setting by setting: (compound dose 1 µM) 0.809 ± 0.061; (compound dose 5 µM) 0.752 ± 0.23.

Compound `CS(=O)(=O)c1cccc(CNc2nc(Nc3ccc4c(c3)CCC(=O)N4)ncc2C(F)(F)F)c1` yielded a cell count (compound dose 1 µM) of 1.34 ± 0.21 and a cell count (compound dose 5 µM) of 1.32 ± 0.28.

Turning to `O=C1NC(=O)C(Cc2c[nH]c3c(Cl)cccc23)N1` (stereo not drawn) [Necroptosis-IN-1], the cell count reads like this: (compound dose 1 µM) 1.15 ± 0.28; (compound dose 5 µM) 1.12 ± 0.17.

For `O=c1c2ccccc2oc2ccccc12`, the cell count by setting is: (compound dose 1 µM) 1.2 ± 0.076; (compound dose 5 µM) 1.02 ± 0.12.

For the compound `CC(C)(C)C[C@@H]1N[C@@H](C(=O)N[C@H]2CC[C@H](O)CC2)[C@H](c2cccc(Cl)c2F)[C@]12C(=O)Nc1cc(Cl)ccc12`, the cell count by setting is: (compound dose 1 µM) 1.02 and 0.893; (compound dose 5 µM) 1.1 and 1.02.

Take `CC1(C)CC[C@]2(C(=O)n3cnc(-c4ccccn4)c3)CC[C@]3(C)[C@H](C(=O)C=C4[C@@]5(C)C=C(C#N)C(=O)C(C)(C)[C@@H]5CC[C@]43C)[C@@H]2C1`: the cell count reads like this: (compound dose 1 µM) 0.794 ± 0.083; (compound dose 5 µM) 0.01 ± 0.0014.

For `CC(C)=CC(=O)O[C@H]1Cc2cc3ccc(=O)oc3cc2OC1(C)C` [Decursin], the cell count was determined as 1.16 ± 0.16 (compound dose 1 µM) and 1.06 ± 0.047 (compound dose 5 µM).

Consider `CCNC(=O)CC[C@H](N)C(=O)O`, for which the cell count by setting is: (compound dose 1 µM) 1.11 ± 0.046; (compound dose 5 µM) 1.11 ± 0.043.

On to `Nc1ncn([C@H]2C[C@H](O)[C@@H](CO)O2)c(=O)n1` [Decitabine], for which the cell count runs as follows: (compound dose 1 µM) 1.07 ± 0.098; (compound dose 5 µM) 0.968 ± 0.028.

Turning to `O=c1cc(-c2ccc(O)c(O)c2)oc2cc(O)cc(O)c12` [Luteolin], the cell count is, setting by setting: (compound dose 1 µM) 0.886 ± 0.1; (compound dose 5 µM) 0.992 ± 0.22.

`O=C(NOCCO)c1ccc2cncn2c1Nc1ccc(I)cc1F`: the cell count runs as follows: (compound dose 1 µM) 1.17 ± 0.027; (compound dose 5 µM) 1.09 ± 0.057.

`CC(=O)Nc1ccc(NC(=S)NC(=O)c2ccc(C(C)(C)C)cc2)cc1` [Tenovin-1] displayed a cell count (compound dose 1 µM) of 1.08 ± 0.26 and a cell count (compound dose 5 µM) of 1.07 ± 0.058.

In the case of `O=C1C=C2CC3(O)COc4c(ccc(O)c4O)C3=C2C=C1O` (stereo not drawn) [Hematein], the cell count is, setting by setting: (compound dose 1 µM) 1.16 ± 0.15; (compound dose 5 µM) 1.11 ± 0.13.

On to `CC(C)N(CCCNC(=O)Nc1ccc(C(C)(C)C)cc1)C[C@H]1O[C@@H](n2ccc3c(N)ncnc32)[C@H](O)[C@@H]1O`, for which the cell count (compound dose 1 µM) stood at 1.02 ± 0.021 and the cell count (compound dose 5 µM) came out at 1.02 ± 0.035.

Take `Cc1cc(Nc2ccc(NC(=O)c3ccc(Nc4ccnc5ccccc45)cc3)cc2)nc(N)n1`: the cell count (compound dose 1 µM) is 1.05 ± 0.19 and the cell count (compound dose 5 µM) came to 0.268 ± 0.18.

Take `CN1CCN(c2ccc(-c3ccncc3-c3cc(F)c(O)c(F)c3)cc2)CC1`: the cell count by setting is: (compound dose 1 µM) 1.2 ± 0.14; (compound dose 5 µM) 1.19 ± 0.088.

`NC(=O)[C@H](CCCN=C(N)CCl)NC(=O)c1ccccc1` [Cl-amidine (hydrochloride)]: the cell count (compound dose 1 µM) amounted to 1.02 ± 0.19 and the cell count (compound dose 5 µM) was 1.011 ± 0.0099.

The values above are taken from the supplement of paper PMC12462457.
